Measurements reported in the RNAGym collection of RNA variant scans (doi:10.1073/pnas.2313332121).
This sample is rich in variants without activity.

B1: TPR 5TU (parent)
chain: GGAUCUUCUCGAUCUAACAAAAAAGACAAAUCUGCCACAAAGCUUGAGAGCAUCUUCGGAUGCAGAGGCGGCAGCCUUCGGUGGCGCGAUAGCGCCAACGUUCUCAACUAUGACACGCAAAACGCGUGCUCCGUUGAAUGGAGUUUAUCAUG

Variants of: B1
Experiment: polymerase ribozyme fitness, log enrichment relative to wild type (log ratio); higher = more active; in vitro selection for triplet polymerase activity
Procedure, shortened: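 In triplicate, a single round of in vitro selection was run on each mutant library, PCR-built and transcribed, covering one subunit of a heterodimeric triplet polymerase ribozyme. Frozen incubation at −7 °C followed annealing with a biotinylated primer, partner subunit and triplets, and extended constructs were then gel-excised, streptavidin-captured and taken through RT-PCR. Fitness is the logarithm of genotype enrichment over wild-type enrichment, from inverse-variance-weighted replicate averages of Illumina-sequenced inputs and outputs. […] only genotypes with ≥10 input reads and ≥1 read per output were kept.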

| Variant | polymerase ribozyme fitness (log ratio) |
| --- | --- |
| GGAUCUUCUCGAUCUAACAAAAAAGACAAAUCUGCCACAAAGCUGGAGAGCAUCUUCGGAUGCAGAGGCGGCAGCCUUCGGUGACGCGAUAGCGCCAACGUUCUCAACUAUGACACGCAAAACGCGUGCUCCUUUGAAUGGCGUUUAUCAUG [U45G G84A G133U A142C] | ≤ -4.2 |
| GGAUCUUCUCGAUCUAACAAAAAAGACAAAUCUGCCACAAAGCUCGAGAGUAUCUUCGGAUGCAGAGGCGGCACCCUUCGGUGGCGCGAUAGAGCGAACGUGCUCAACUAUGACACGCAAAACGCGUGCUCCGUUGAAUGGAGUUUAUCAUG [U45C C51U G74C C93A C96G U102G] | ≤ -4.2 |
| GGAUCUUCUCGAUCUAACAAAAAAGACAAAUCUGCCACAAAGCUGGAGAGCAUCCUCGGAUGCAGAGGCGGCAGCCUUCGGUGGCGCGAUAGCCCCAACGUUCUCAACUAUGACACGCAAAACGCGUGUUCCGUUGUAUGGAGUUUAUCAUG [U45G U55C G94C C129U A137U] | ≤ -4.2 |
| GGAUCUUCUCGAUCUAACAAAAAAGACAAAUCUGCCACAAAGCUUAAGAGCAUCUUCGGAUGCAGUGGCGGCAGCCUUCGGUGGCGCGAUAGCGCCAACGUUCUCAACUAUGACACGGGAAACGCGUGCUCCGUUGAAUGGAGUUUAUCAUG [G46A A66U C118G A119G] | ≤ -4.2 |
| GGAUCUUCUCGAUCUAACAAAAAAGACAAAUCUGCCACAAAGCUCGAGAGCAUCUUCGGAAGCAGAGGCGGCAGCCUUCGGUGGCGCGAUCGCGCCAACGUUCUCAACUCUGACACGCAAAACGCGUGCUCCGUUGAAUGGAGUUUAUCAUG [U45C U61A A91C A110C] | ≤ -4.2 |
| GGAUCUUCUCGAUCUAACAAAAAAGACAAAUCUGCCACAAAGCUGGUGAGCAUCUUCGGAUGCUGGGGCGGCAGCCUUCGGUGGCGCUAUACCGCCCACGUUCUCAACUAUGACACGCAAAGCGCGUGCUCCGCUGAAUGGAGUUUAUCAUG [U45G A47U A64U A66G G88U G92C A97C A122G U134C] | ≤ -4.2 |
| GGAUCUUCUCGAUCUAACAAAAAAGACAAAUCUGCCACAAAGCUUAAGAGCAUCUUCGGAUGCAGCGGCGGCAGCCUUCGGUGGCGCGAUAGCGCCAGCGUUCUCAACUAUGACACGCAAAACGCGUGCUCCGUUGAAUGGAGUUUAUCAUG [G46A A66C A98G] | ≤ -4.2 |
| GGAUCUUCUCGAUCUAACAAAAAAGACAAAUCUGCCACAAAGCUUAAGAGCCUCAUCGGAUGCAGAGGCGGCAGCCUUCGGUGGCGCGAUAGCGCCAACGUUCUCAACUAUGACACGCAAAACGCGUGCUCCGUUGAAUGGAGUUUAUCAUG [G46A A52C U55A] | ≤ -4.2 |
| GGAUCUUCUCGAUCUAACAAAAAAGACAAAUCUGCCACAAAGCUGGAGAGCAUUUUCGGAUGCAGAGGCGGCAGCCUUCGGUGGCGCGAUAGAGCCAACGUUCUCAACUAUGACACGCAAAACGCGUGCUCCUUUGAAUGGAGUUUAUCAUG [U45G C54U C93A G133U] | ≤ -4.2 |
| GGAUCUUCUCGAUCUAACAAAAAAGACAAAUCUGCCACAAAGCUUAAGUGCAUCUUCGGAUGCAGAGGCGGCAGCCUUCGGUGGCGCGAUAGCGCGAACGUUCUCAACUUUGACACGCAAAACGCGUGCUCCGUUGAAUGGAGUUUAUCAUG [G46A A49U C96G A110U] | ≤ -4.2 |
| GGAUCUUCUCGAUCUAACAAAAAAGACAAAUCUGCCACAAAGCUAGAGAGCAUCUUCGGAUGCAGAGGCGGCAGCCUUCGGUGGCGCGAUAGCGCCAACGUUCUCAACUAGGACACGCAAAACGCGUGCUCCGUUGAAUGGAGUUUAUCAUG [U45A U111G] | ≤ -4.2 |
| GGAUCUUCUCGAUCUAACAAAAAAGACAAAUCUGCCACAAAGCUGGAGAGUAUGUUCGGAUGCAGAGGCGGCAGCCUUCGGUGGCGCGAUAGCGACAAGGUUCUCAACUAUGACACGCAAAACGCGUGCUCCGUUGAAUGGAGUUUAUCAUU [U45G C51U C54G C95A C99G G152U] | ≤ -4.2 |
| GGAUCUUCUCGAUCUAACAAAAAAGACAAAUCUGCCACAAAGCUUAAGGGCAUCUUCGGAUGCAGAGGCGGCAGCCGUCGGUGGCGUGAUAGCGCCAACGUUCUCAACUAUGACACGCAAAACGCGUGCUCCGUUGAAUGGAGUUUAUCCUG [G46A A49G U77G C87U A150C] | ≤ -4.2 |
| GGAUCUUCUCGAUCUAACAAAAAAGACAAAUCUGCCACAAAGCUGGAGAGCAUAUUCGGAUGCAGGGGCGGCAGCGUUCGGUGGUGCGAUAGCGCCAACGUUCUCAACUAUGACACGCAAAACGCGUGCUCCGUUGGAUGGAGUUUCUCAUG [U45G C54A A66G C76G C85U A137G A147C] | ≤ -4.2 |
| GGAUCUUCUCGAUCUAACAAAAAAGACAAAUCUGCCACAAAGCUAGAGAGCAUCAUCGGAUGCAGAGGCGUCAGCCUUCGGUGGCGCGAUAGCGCCAACGUUCUCAACUAUGACACGCAAAACGCGUGCUCCGUUGAAUGGAGUUUAUCAUG [U45A U55A G71U] | ≤ -4.2 |
| GGAUCUUCUCGAUCUAACAAAAAAGACAAAUCUGCCACAAAGCUGGAGGGCAUCUUCGGAUGCAGAGGCGGCAGCCUUCGGUGGCGCGAUAGCGCCAGCGUUCUCAUCUAUGACACGCAAAACGCGUGCUCCGUUGAAUGGAGUUUAUCAUG [U45G A49G A98G A107U] | ≤ -4.2 |
| GGAUCUUCUCGAUCUAACAAAAAAGACAAAUCUGCCACAAAGCUUAUGAGCGUCUUCGGAUGCAGAGGCGGCAGCCUCCAGUGGCGAGAUAGCGCCAACGUUCUCAACUAUCACACGCAAAACGCGUGCUCCGUUGAAUGGAGUUUAUCAUG [G46A A47U A52G U78C G80A C87A G112C] | ≤ -4.2 |
| GGAUCUUCUCGAUCUAACAAAAAAGACAAAUCUGCCACAAAGCUAGAGAGCAUCGUCGGAUGCAGAGGGGGCAGCCUUCGGUGGCUCGAUAGCGCCAACGUUCUCAACUGGGACACGCAAAACGCGUGCUCCGUUGAAUGGAGUUUAUCAUG [U45A U55G C69G G86U A110G U111G] | ≤ -4.2 |
| GGAUCUUCUCGAUCUAACAAAAAAGACAAAUCUGCCACAAAGCUUAAGGGCAUCGUCGGAUGCAGAGGCGGCAGCCUUCGGUGGCACGAUAGCGCCAACGUUCUCAACUAUGACACGCAAAAGGCGUGCUCCGUUGAAUAGAGUUUAUCAUG [G46A A49G U55G G86A C123G G140A] | ≤ -4.2 |
